Here are results for 24 compounds from PubChem BioAssay AID463173 (ICCB-Longwood Screening Facility, Harvard Medical School, 2010).

In all, about 52,000 compounds went through this assay and about 1,700 (3.3%) were called active. Cut-off read from the data, not from the text of the source: active = survival mostly below about 52% (no sharp cut-off); inactive = mostly above about 56%. Some of the results follow.

The subject of this assay is Wild type. Nature of the assay: growth inhibition of S. aureus wild type versus tarO mutant, primary screen, teichoic acid synthesis inhibitors, RN4220, OD600 (AID 463173). The conditions noted are these: S. aureus RN4220 wild type/DeltatarO growth, OD600, 18 h, active compounds read low, screened at 18.75 µg/mL (by protocol).
On to `Cc1ccc(CCNC(=O)c2ccc(CNS(=O)(=O)c3ccc(C)cc3)cc2)cc1`, for which the survival is inactive: 70%.
As for `Cc1ccc(Cl)cc1N1CCN(C(=O)c2cn(CC(C)C)c(=O)c3c2c2ccccc2n3C)CC1`, the survival is inactive: 87%.
The figure for `CCCN1CCCc2cc(CN)ccc21` is inactive: 115%; for `O=C(c1cccs1)N1CCN(c2ccc(Cl)cc2)CC1` it is inactive: 108%.
The figure for `O=C(Nc1cc(C(F)(F)F)ccc1Cl)c1ccc2c(c1)CCN2S(=O)(=O)c1ccccc1` is inactive: 98%; for `COc1cc(OC)cc(-c2cc3nc(-c4ccccc4)cc(N4CCN(c5ccccc5)CC4)n3n2)c1` it is inactive: 101%.
With `CCS(=O)(=O)N1CCCC(c2nc3c(nnn3Cc3ccc(C)cc3)c(=O)[nH]2)C1` (centres undefined), the survival was inactive: 101%.
Take `CN(C(=O)CSc1nc(N)cc(=O)[nH]1)c1ccccc1`: the survival was inactive: 98%.
Then `Cc1cc(C)c(Cn2c(=O)n(-c3ccccc3Cl)c(=O)c3c(C)c(C(=O)N(C)C)sc32)c(C)c1`, with inactive: 75%; and `Cc1cn2c(=O)cc(COc3cccc(NC(=O)c4ccccc4Cl)c3)nc2s1`, with inactive: 88%; and `COc1ccc(N2CCN(C(=O)c3ccc4c(c3)N(Cc3cc(C)ccc3C)C(=O)c3ccccc3S4=O)CC2)cc1` (centres undefined), with inactive: 86%.
Then `COc1cccc(N2CC(NC(=O)C3CCCCC3)CC2=O)c1` (centres undefined), with inactive: 148%; and `CC(=O)c1c(C)oc2ccc(NS(=O)(=O)c3ccc(C(C)C)cc3)cc12`, with inactive: 86%.
Consider `Cc1ccccc1C(=O)Nc1cccc(-c2cn3cccnc3n2)c1`, for which the survival was inactive: 105%.
Then `COc1ccc(C(=O)Nc2nnc(S(=O)(=O)N3CCN(c4ccc(C)cc4)CC3)s2)cc1`, with inactive: 79%; and `CC(Oc1ccccc1)C(=O)Nc1nnc(S(=O)(=O)N2CCCCCC2)s1` (centres undefined), with inactive: 81%; and `COc1cccc(-c2cc(C(=O)Nc3ccc4c(c3)OCO4)no2)c1`, with inactive: 90%.
The figure for `COc1ccc(-c2cc3nc(C)c(CCC(=O)Nc4ccc(F)cc4F)c(C)n3n2)c(OC)c1` is inactive: 75%.
The figure for `Cc1ccc(Oc2nc3c(c(=O)n(Cc4ccccc4Cl)c(=O)n3C)n2C)cc1C` is inactive: 81%.
As to `COc1ccc(NC(=O)CSc2ccc(-c3cccs3)nn2)cc1`, the survival was inactive: 89%.
Then `COc1ccc(/C=C/C(=O)N2CCC(c3nc4ccccc4o3)CC2)cc1`, with inactive: 91%.
The figure for `CCOc1ccc(C(=O)Nc2ccc(C(=O)OCc3cc(=O)n4nc(CC)sc4n3)cc2)cc1` is inactive: 73%; for `COC(=O)c1ccc(NC(=O)N2CCC(CN3CCc4ccccc4C3)CC2)cc1` it is active: 1%; for `CCOC(=O)c1ccc(NS(=O)(=O)c2cn(C)c(C)n2)cc1` it is inactive: 73%.
